In PubChem BioAssay AID686978 (National Center for Advancing Translational Sciences (NCATS), 2013):
In all, about 420,000 compounds went through this assay and about 64,000 (15%) were called active. The shares of active, inactive and inconclusive entries below differ from those in the screen. Calls follow the shape of the dose curve; as a rule, active = well fitted inhibition curve with a large enough effect; inconclusive = small, poorly fitted or top-dose-only effect; inactive = flat fitted curve, though single readings scatter. No potency is given beside an inconclusive call; the fits are too rough.
Potency is read from the fitted curve at half-maximal effect; tags tell the direction and shape of the fitted curve.

Assay: qHTS for Inhibitors of human tyrosyl-DNA phosphodiesterase 1 (TDP1): qHTS in cells in absence of CPT; also: nearly all actives have a fitted effect of over 55% in size
Settings: DT40 Tdp1-/- hTDP1 cells, no CPT, ATP luminescence, 48 h; series mostly up to 46.2 µM
Method in brief: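 Stably hTDP1-transfected Tdp1-null chicken DT40 cells were treated with library compounds minus camptothecin and grown for at least 48 hr at 37 °C, after which cellular ATP was quantified by luminescence.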
With `O=S(=O)(c1cnccc1N1CCN(/N=C/c2ccc(Cl)cc2)CC1)N1CCCCC1` the Potency was inconclusive [inhibitor, single point].
In the case of `CCOCCCn1c(=N)c(C(=O)NCC2CCCO2)cc2c(=O)n3cc(C)ccc3nc21` (centres undefined), the Potency is reported as “inactive”.
With `COc1cccc(-c2nc(SCC(=O)N3CCc4ccccc43)c3c(=O)n(C)c(=O)n(C)c3n2)c1` the Potency was “inactive”.
With `O=S(=O)(NCc1ccccc1)c1ccccc1NCc1ccc(Cl)cc1` the Potency was inconclusive [inhibitor, single point].
For `COc1ccc(NC(C)=O)cc1NC(=O)C1CCCN1C(=O)c1cccs1` (centres undefined), the Potency was “inactive”.
With `Cc1c(C(=O)Nc2ccc(-n3cnnn3)cc2)oc2ccccc12` the Potency was inconclusive [inhibitor, partial curve, poor fit].
In the case of `COC(=O)c1sc2nc(SCc3ccccc3C)n(N)c(=O)c2c1C`, the Potency is reported as inconclusive [inhibitor, single point].
In the case of `CCn1nnc(NC(=O)c2ccc([N+](=O)[O-])o2)n1`, the Potency is reported as inconclusive [inhibitor, single point].
For `Cc1cccc(OC(C)C(=O)N(Cc2cccs2)C2CCS(=O)(=O)C2)c1C` (centres undefined), the Potency was inconclusive [inhibitor, single point].
For `Oc1ccc(Br)cc1CNc1nccs1`, the Potency was inconclusive [inhibitor, single point].
In the case of `c1ccc2sc(-n3cc(C4CCCCC4)nn3)nc2c1`, the Potency is reported as inconclusive [inhibitor, single point].
For `COc1ccc(C(C)=O)cc1COc1ccc([N+](=O)[O-])c(C)c1`, the Potency was inconclusive [inhibitor, single point].
For `CCC(C)NC(=O)c1ccc(CS(=O)(=O)c2ccc(OC)cc2)o1` (centres undefined), the Potency was “inactive”.
In the case of `COc1ccc(CC2(CO)CCN(Cc3cc4ccccc4o3)CC2)cc1`, the Potency is reported as active: 16.4 µM.
For `Cc1ccc(S(=O)(=O)N(C)C)cc1NC(=S)NC1CCCC(C)C1C` (centres undefined), the Potency was inconclusive [inhibitor, single point].
In the case of `CCCc1ccc(-c2cc(C(=O)N3CCN(c4ccccn4)CC3)c3ccccc3n2)cc1`, the Potency is reported as active: 18.4 µM.
For `COc1ccc(OC)c(NC(=S)N2CCN(C/C=C/c3ccccc3)CC2)c1`, the Potency was inconclusive [inhibitor, single point].
With `O=C(O)Cc1cc2ccccc2nc1C(=O)O` the Potency was “inactive”.
With `COc1ccc(CCNC(=O)Nc2cccc([N+](=O)[O-])c2)cc1OC` the Potency was inconclusive [inhibitor, single point].
In the case of `Cc1cccc(OCC(=O)Nc2ccc3nc(Nc4cccc(Cl)c4)cc(C)c3c2)c1`, the Potency is reported as inconclusive [inhibitor, partial curve].
With `c1ccc2c(c1)ncn2Cc1nnc2sc(-c3ccncc3)nn12` the Potency was inconclusive [inhibitor, single point].
With `CCCCCn1c(=N)n(CC(O)COc2ccccc2OC)c2ccccc21` (centres undefined) the Potency was active: 5.8 µM.
With `CCOc1ccccc1CNC(=O)CN1C(=O)CCc2cc(S(=O)(=O)N3CCCCC3)ccc21` the Potency was active: 20.6 µM.
In the case of `CCc1nnc(NC(=O)CSc2nnc(C3CCCCC3)n2-c2cccc(Cl)c2)s1`, the Potency is reported as inconclusive [inhibitor, single point].
For `CCOC(=O)c1c(-c2ccccc2)oc2ccc(NS(=O)(=O)c3ccc(C(C)C)cc3)cc12`, the Potency was inconclusive [inhibitor, single point].
With `Cc1cc(NCc2ccco2)nc(N2CCC(C(=O)NC3CCCCC3)CC2)n1` the Potency was inconclusive [inhibitor, single point].
For `CCn1c(CNC(=O)c2cccc(C)c2)nc2ccccc21`, the Potency was “inactive”.
For `COc1ccccc1NC(=O)c1c(NC(=O)c2ccccc2Cl)sc2c1CCC2`, the Potency was “inactive”.
For `CCCCNC(=O)Nc1nnc(C(C)(C)C)s1`, the Potency was inconclusive [inhibitor, single point].
In the case of `CCOC(=O)c1oc2ccccc2c1NC(=O)c1ccc(Cl)s1`, the Potency is reported as inconclusive [inhibitor, partial curve].
With `CN(Cc1ccc(C(F)(F)F)cc1)C(=O)C1CCC(=O)N(C2CC2)C1` (centres undefined) the Potency was “inactive”.
For `CC1CCCN(C(=O)c2nn(C)c3c2CSc2ccccc2-3)C1` (centres undefined), the Potency was “inactive”.
With `O=C(CSc1ccc(-c2cccnc2)nn1)Nc1ccc(Br)cc1` the Potency was inconclusive [inhibitor, single point].
With `Cc1ccc(Cn2nc(C)c(NC(=O)c3cc(-c4ccco4)on3)c2C)cc1` the Potency was inconclusive [inhibitor, partial curve].
For `CC1CCN(C(=O)Cn2c3ccc(F)cc3c3nc4n(c(=O)c32)CCCS4)CC1`, the Potency was inconclusive [inhibitor, single point].
In the case of `Nc1cc(=O)[nH]c(SCC(=O)Nc2cccc(Cl)c2Cl)n1`, the Potency is reported as “inactive”.
With `CC(C)c1ccc2oc(=O)cc(CN3CCN(c4ccccc4)CC3)c2c1` the Potency was inconclusive [inhibitor, single point].
For `CN(C)c1ccc(/C=C/c2cc[n+](C)c3ccc4ccccc4c23)cc1`, the Potency was inconclusive [inhibitor, full curve, poor fit].
For `CC(=O)N1CCc2c(sc3c2c(=O)n(Cc2ccccc2)c(=O)n3CC(=O)Nc2ccc(C)c(F)c2)C1`, the Potency was inconclusive [inhibitor, single point].
For `COC(=O)C1=C(N)Oc2cc(C)n(CCCn3ccnc3)c(=O)c2C1c1ccc(Cl)cc1` (centres undefined), the Potency was inconclusive [inhibitor, partial curve, poor fit].
With `COc1ccc(OCC(O)Cn2c(Nc3cccc(C)c3)nc3c2c(=O)n(C)c(=O)n3C)cc1` (centres undefined) the Potency was active: 14.6 µM.
With `CCOc1ccc(CNC(=O)CCCn2c(=O)c3cccn3c3ccc(F)cc32)cc1` the Potency was active: 11.6 µM.
In the case of `CC(C)(C)N(CC#CCC(O)(c1ccccc1)C1CCCC1)CCO` (centres undefined), the Potency is reported as inconclusive [inhibitor, partial curve].
In the case of `COc1cc(OC)cc(N(C(=O)CNC(=O)c2cccs2)C(C(=O)NCC2CCCO2)c2ccc(OC)c(OC)c2)c1` (centres undefined), the Potency is reported as “inactive”.
